# Results reported in PMC4336329 (PLoS ONE, 2015).
# Among all 310,000 compounds or so, about 14,000 (4.5%) showed an effect of 50% or more. The effect is printed as a negative number. This is one part of the list.
# Target: human ether-à-go-go-related gene (hERG) potassium channel (human, UniProt Q12809)
# Assay: primary screen, population patch clamp on CHO cells stably expressing hERG
# 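Note: peak tail current of the secondary pulse compared with the same well before compound.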
# human ether-à-go-go-related gene (hERG) potassium channel, sequence (Q12809 whole entry, looked up): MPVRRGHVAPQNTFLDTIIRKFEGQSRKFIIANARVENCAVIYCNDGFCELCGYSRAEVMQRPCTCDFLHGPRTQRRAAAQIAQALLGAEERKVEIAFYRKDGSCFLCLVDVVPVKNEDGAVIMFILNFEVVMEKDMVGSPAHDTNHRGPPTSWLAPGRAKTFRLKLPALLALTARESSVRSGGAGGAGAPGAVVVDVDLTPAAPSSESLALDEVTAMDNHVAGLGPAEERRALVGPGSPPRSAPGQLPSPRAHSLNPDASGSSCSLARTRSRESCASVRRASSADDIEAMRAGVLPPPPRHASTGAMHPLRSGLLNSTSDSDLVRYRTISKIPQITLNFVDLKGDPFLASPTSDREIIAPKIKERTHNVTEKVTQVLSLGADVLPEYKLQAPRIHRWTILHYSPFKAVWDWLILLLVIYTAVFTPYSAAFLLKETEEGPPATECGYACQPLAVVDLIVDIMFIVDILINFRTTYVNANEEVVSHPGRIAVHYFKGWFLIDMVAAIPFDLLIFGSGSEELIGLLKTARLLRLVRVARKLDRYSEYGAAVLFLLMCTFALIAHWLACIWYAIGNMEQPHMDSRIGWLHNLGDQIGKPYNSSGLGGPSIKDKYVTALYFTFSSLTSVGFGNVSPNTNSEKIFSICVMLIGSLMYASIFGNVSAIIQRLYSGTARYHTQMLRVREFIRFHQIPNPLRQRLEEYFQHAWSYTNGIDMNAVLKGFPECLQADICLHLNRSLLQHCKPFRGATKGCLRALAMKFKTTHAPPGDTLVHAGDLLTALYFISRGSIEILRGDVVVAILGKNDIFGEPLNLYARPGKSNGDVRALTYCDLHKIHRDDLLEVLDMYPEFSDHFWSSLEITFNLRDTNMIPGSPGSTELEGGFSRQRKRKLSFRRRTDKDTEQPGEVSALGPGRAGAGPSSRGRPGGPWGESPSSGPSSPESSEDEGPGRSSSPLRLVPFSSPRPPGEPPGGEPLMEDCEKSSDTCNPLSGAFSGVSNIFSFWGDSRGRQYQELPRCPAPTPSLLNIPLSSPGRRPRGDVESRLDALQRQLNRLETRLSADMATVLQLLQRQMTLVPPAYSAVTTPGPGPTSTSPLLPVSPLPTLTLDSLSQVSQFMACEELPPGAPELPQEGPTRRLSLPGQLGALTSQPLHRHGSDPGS
row,Structure (SMILES),"hERG current change (%, negative = inhibition) at 10uM"
1,Cc1ccc(OCCSc2nc(NC(C)C)nc(NC(C)C)n2)cc1,-11.6%
2,Nc1c2c(nc3sc4c(c13)CCCC4)CCCCC2,-6.3%
3,CCCOc1ccc(C(CC(=O)O)NC(=O)Cc2ccccc2)cc1 (centres unmarked),9.79%
4,COc1ccccc1NC(=O)CN(C)S(=O)(=O)c1ccc2c(c1)CCC(=O)N2,-45.3%
5,CCC(C)NC(=O)CSc1ncnc2sccc12 (centres unmarked),11.7%
6,CSc1ccc(N2C(=O)NC3(CCCCC3)C2=O)cc1,5.31%
7,CCOc1ccc2oc(C(=O)OCC(=O)N3CCCC(C)C3)c(C)c2c1 (centres unmarked),-44.9%
8,O=C(COC(=O)Cn1cnc2ccccc2c1=O)NCc1ccccc1Cl,10.9%
9,CSc1nc(Cl)c(Cc2ccc(OCC(C)C)cc2)c(N2CCOCC2)n1,11.4%
10,O=S1(=O)CC/C(=N\Nc2ccc(F)cc2)c2ccsc21,-13.7%
11,Cc1cc2c(c(=O)o1)C(C1C=CCCC1)C(C#N)=C(N)O2 (centres unmarked),-4.08%
12,COc1ccc(S(=O)(=O)N2CCCCC2)cc1NC(=O)c1ccco1,-9.54%
13,CC(C)c1ccc(CN2CCC(C(=O)NCc3cccnc3)CC2)cc1.O=C(O)C(=O)O,-52.1%
14,O=C(CCCN1C(=O)/C(=C/c2ccccc2)SC1=S)Nc1ccc(C(=O)O)c(O)c1,6.6%
15,CC(=O)c1ccc(OCc2ncc(C(F)(F)F)cc2Cl)cc1,-3.48%
16,O=C(NCC1CCCO1)C(C(=O)c1ccccc1)n1cc(Cl)ccc1=O (centres unmarked),-4.07%
17,COC(=O)C(C)Sc1nnc2n(-c3cccc(C)c3)c(=O)c3c4c(sc3n12)CCCC4 (centres unmarked),-19.3%
18,COc1ccc(OC)c(/C=N/c2c(-c3ccc(O)c(OC)c3)nc3ccccn23)c1,2.87%
19,CC(=O)N1CCN(c2ccc(NCc3ccco3)cc2)CC1,8.93%
20,Cc1csc(N(C(=O)c2cccc(S(=O)(=O)N(C)C)c2)c2ccccc2)n1,-15.9%
21,O=C(NC1CC1)C1=NOC(CNc2ncc(C(F)(F)F)cc2Cl)C1 (centres unmarked),-48.6%
22,CCC(CC)C(=O)NCCc1ccc(F)cc1,12.1%
23,CCOC(=O)c1c(C)[nH]c(C(=O)N2CCN(c3ccc(OC)cc3)CC2)c1C,-0.628%

row,Structure (SMILES),"hERG current change (%, negative = inhibition) at 10uM"
1,O=C(CCNC(=O)c1ccc(Br)cc1)Nc1cc(Cl)ccc1-n1cncn1,-39.4%
2,CCOC(=O)N1CCN(C(=O)c2cn(CC)c3ccc(S(=O)(=O)N4CCCC4)cc3c2=O)CC1,-8.59%
3,CN(C)C(=O)c1nc2ccc(Cl)cn2c1CN1CCCC(OCc2cccnc2)C1 (centres unmarked),-57.9%
4,CC(=O)c1c(C)[nH]c(C(=O)COC(=O)c2c(C)noc2C)c1C,6.23%
5,O=S(=O)(Cc1ccccc1)Nc1cccc(Br)c1,7.8%
6,COCCCNc1nc2ccccc2nc1NS(=O)(=O)c1ccc(F)cc1,14.6%
7,COC(=O)c1c(NC(=O)c2ccco2)sc2c1C(C(=O)OC)CC2 (centres unmarked),9.19%
8,COc1ccc(-n2c(=S)[nH]c3sc4c(c3c2=O)CCc2ccccc2-4)cc1,17.1%
9,C=C(C)C1CC=C(C)/C(=N/Nc2ccccc2[N+](=O)[O-])C1 (centres unmarked),15.9%
10,O=C(CCCc1c[nH]c2ccccc12)Nc1ccc(S(=O)(=O)Nc2ncccn2)cc1,-5.28%
11,COc1ccccc1CNc1nc2nc(C)cc(=O)n2[nH]1,3.67%
12,Cc1ccc(CN=C2Nc3ccccc3CS2)cc1,12.7%
13,O=C(CCN1CCN(c2ccccc2F)CC1)Nc1ccc2c(c1)OCO2,-27.6%
14,Cc1cccc(NC(=O)CNC(=O)COc2cc(F)ccc2[N+](=O)[O-])c1C,1.21%
15,CC(=O)/C(=N/Nc1ccccc1Cl)Sc1nnc(C(O)c2ccccc2)n1-c1ccccc1 (centres unmarked),-23.7%
16,CC(O)/C=C/c1ccc2ccccc2n1 (centres unmarked),-2.74%
17,Cc1ccc(C)c(S(=O)(=O)NCc2ccncc2)c1,4.22%
18,CC(C)COc1ccc(/C(O)=C2/C(=O)C(=O)N(CCN(C)C)C2c2ccncc2)cc1 (centres unmarked),15.8%
19,CC1CCCN(C(=S)SCC(=O)c2cc(Br)cc(Br)c2O)C1 (centres unmarked),5.78%
20,CN(CC(=O)NCCc1ccc(S(N)(=O)=O)cc1)CC(=O)Nc1ccccc1Cl,-3.11%
21,COc1ccc(CNC(=S)Nc2ccc(F)c(Cl)c2)cc1OC,-2.94%
22,CN(C)C(=S)N=Nc1[nH]c2ccccc2c1O,16.4%
23,COc1ccccc1N=C(C)C1=C(O)COC1=O,17.4%

row,Structure (SMILES),"hERG current change (%, negative = inhibition) at 10uM"
1,O=C(COc1ccccc1)NCC(=O)Nc1cccc2ccccc12,9.81%
2,CCOc1cc(/C=C/C(=O)O)ccc1OCc1ccccc1,3.01%
3,Cc1cccc(C)c1NC(=S)NCc1ccccc1,4.74%
4,Cc1ccc(CNS(=O)(=O)c2ccc([N+](=O)[O-])cc2)cc1,6.33%
5,Cc1cc(CNC(=O)COC(=O)c2ccc(Cl)c(N)c2)cc(C)c1O,-0.169%
6,O=C(COC(=O)c1ccncc1)Nc1cc(Cl)ccc1Cl,6.07%
7,CCN(CC(=O)NC(C)C)C(=O)[C@@H](NC(=O)c1ccco1)C(C)C,11.5%
8,CN(C)c1ccc(C(=O)Nc2cccc(S(=O)(=O)NC3=NCCCCC3)c2)cc1,-8.02%
9,O=C(c1cn(-c2ccccc2)nc1-c1ccc(F)cc1)N1CCCCC1,-10.6%
10,COC(=O)c1[nH]c2c(c1C)C(=O)CC(c1ccc(OC)cc1)C2 (centres unmarked),11%
11,CN(C)C(=O)Cn1cnc2c(cnn2-c2ccc(F)cc2)c1=O,-2.06%
12,COc1cc(/C=C/C(=O)OCC(=O)NCc2ccco2)ccc1OC(F)F,6.87%
13,Cc1nc2ccccc2c(C)c1C(=O)c1ccc(F)cc1.Cl,7.17%
14,Cc1ccc(S(=O)(=O)NCc2csc(C)n2)c(C)c1,10.1%
15,O=C(Nc1ccc2c(c1)OCCO2)c1cccnc1Oc1ccccc1,10.9%
16,O=c1oc2ccccc2c(N2CCOCC2)c1[N+](=O)[O-],10.2%
17,Cc1cccc(NC(=O)c2cc3cc([N+](=O)[O-])ccc3s2)n1,9.94%
18,COc1ccc(S(N)(=O)=O)cc1-c1nnc2c3ccccc3c(C)nn12,14.5%
19,O=C(Nc1ccc(Cl)cc1)Nc1nnc(CSCc2ccccc2Cl)s1,-9.46%
20,COc1ccc(NC(=O)CSc2nnc(-c3cccs3)n2C)cc1OC,8.13%
21,CCOc1ccc(Nc2nc(N(C)c3ccccc3)nc(N)c2[N+](=O)[O-])cc1,31.4%
22,CC(C)(C)NS(=O)(=O)c1ccc(CCC(=O)O)cc1,-3.85%
23,O=C(CCn1cccc1)NCc1ccccc1,8.12%

row,Structure (SMILES),"hERG current change (%, negative = inhibition) at 10uM"
1,COc1cccc(C2NC(CCSC)(C(=O)O)C3C(=O)N(C(C)C)C(=O)C23)c1O (centres unmarked),-9.53%
2,O=C(N=Nc1c(O)[nH]c2ccc(Br)cc12)c1cc(-c2cccc3ccccc23)n[nH]1,12.3%
3,O=C(Nc1nc(-c2ccccn2)cs1)c1cc2ccccc2o1,-8.37%
4,COc1ccccc1NC(=O)CCC(=O)Nc1nnc(C(F)(F)F)s1,-7.32%
5,COc1ccc(CNC(=O)C2CCCN2)cc1OC.O=C(O)C(=O)O (centres unmarked),11.1%
6,CC(OC(=O)c1nsc(Cl)c1Cl)C(=O)NCc1ccc2c(c1)OCO2 (centres unmarked),-6.28%
7,CCc1cccc(OCC2Cn3c(nc4c3c(=O)n(C)c(=O)n4C)O2)c1 (centres unmarked),3.18%
8,CCOC(=O)CC1CCCCN1C(=O)c1ccc2nc(CCOC)oc2c1 (centres unmarked),16.3%
9,CN(CC(=O)Nc1ccc(F)cc1Cl)Cc1cccs1,-7.44%
10,Cc1cccc(NC(=O)C(C)n2cc([N+](=O)[O-])cn2)n1 (centres unmarked),-7.48%
11,COc1ccc(N2CC(C(=O)Nc3c(C(N)=O)oc4ccccc34)CC2=O)cc1 (centres unmarked),-15%
12,CC1CC(C)CN(C(=O)C(NS(=O)(=O)c2ccc3c(c2)oc(=O)n3C)C(C)C)C1 (centres unmarked),-9.31%
13,COC(=O)C1=C(N)OC2=C(C(=O)CC(C)(C)C2)C1c1cc2c(cc1Cl)OCO2 (centres unmarked),-2.53%
14,COc1ccc(C(=O)Nc2cccc(/C(C)=N/NC(=O)c3ccc([N+](=O)[O-])c(C)c3)c2)cc1OC,-20%
15,O=C(CN1CCN(c2ccccc2F)CC1)NCc1ccccc1,-0.288%
16,O=C(NC(=S)NNC(=O)c1cccs1)c1ccco1,-1.93%
17,CCNc1nc(SCCOc2ccccc2)nc(N(C)C)n1,-14.5%
18,COC(=O)C1CCN(Cc2nnc(-c3ccccc3)o2)CC1,16.1%
19,O=C(OCn1nnc2ccccc2c1=O)c1cc2ccccc2o1,1.98%
20,Cc1ccn2c(-c3csc(NCc4ccccc4)n3)c(C)nc2c1.Cl,-72.4%
